According to PubChem BioAssay AID1460 (National Center for Advancing Translational Sciences (NCATS), 2008):
Values joined by “and” are separate entries in the source; they are usually repeats but may differ in a detail not shown here. Identical values can stand only once. Among all 270,000 compounds or so, about 5,800 (2.1%) were called active. The shares of active, inactive and inconclusive entries below differ from those in the screen. Calls come from the whole dose curve; as a rule, active = well fitted inhibition curve with a large enough effect; inconclusive = small, poorly fitted or top-dose-only effect; inactive = flat fitted curve, though single readings scatter. Where the call is inconclusive, the potency comes from a doubtful curve fit.

The compounds below were run against Microtubule-associated protein tau (Homo sapiens) (UniProt P10636) (assay: qHTS for Inhibitors of Tau Fibril Formation, Thioflavin T Binding). Conditions: recombinant tau K18 P301L (four-repeat tau fragment), heparin-induced fibrillization, ThT fluorescence; series mostly up to 57.4 µM; activity, negative = inhibition: at the top concentration.
In short: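 Aggregation was driven by heparin (20 uM final) acting on recombinant tau […] bearing P301L in 100 mM sodium acetate pH 7; fibrils were detected with Thioflavin T.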
% is set by controls: 0 for no effect and ±100 for the full control effect; potency is the fitted concentration of half-maximal effect; tags give direction and shape of the fitted curve.
Note: nearly all actives have a fitted effect of over 55% in size.

UniProt P10636, sequence (P10636 whole entry, looked up, the tested form may be a part): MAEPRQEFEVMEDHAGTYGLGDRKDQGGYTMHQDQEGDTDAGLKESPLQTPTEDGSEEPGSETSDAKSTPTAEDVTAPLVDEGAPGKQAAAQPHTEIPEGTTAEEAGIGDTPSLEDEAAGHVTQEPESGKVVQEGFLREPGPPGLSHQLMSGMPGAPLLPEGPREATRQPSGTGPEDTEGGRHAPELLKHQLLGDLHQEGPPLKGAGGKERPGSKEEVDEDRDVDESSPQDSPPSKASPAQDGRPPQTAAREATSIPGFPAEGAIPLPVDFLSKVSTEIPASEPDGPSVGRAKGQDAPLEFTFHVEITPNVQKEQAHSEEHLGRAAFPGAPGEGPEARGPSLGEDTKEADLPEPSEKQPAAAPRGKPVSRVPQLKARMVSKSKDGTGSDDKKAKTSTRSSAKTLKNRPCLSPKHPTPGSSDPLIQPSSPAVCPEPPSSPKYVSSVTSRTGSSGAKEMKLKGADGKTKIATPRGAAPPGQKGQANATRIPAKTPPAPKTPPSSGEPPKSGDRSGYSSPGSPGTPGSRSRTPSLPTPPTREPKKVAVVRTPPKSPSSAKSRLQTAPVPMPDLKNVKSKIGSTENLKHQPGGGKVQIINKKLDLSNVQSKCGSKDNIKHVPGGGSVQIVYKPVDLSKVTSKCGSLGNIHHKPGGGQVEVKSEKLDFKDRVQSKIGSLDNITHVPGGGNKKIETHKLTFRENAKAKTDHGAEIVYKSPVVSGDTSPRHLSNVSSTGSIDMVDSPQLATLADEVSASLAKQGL

SMILES	Potency	activity, negative = inhibition
COc1ccc2[nH]c(=O)c(CN(C(=O)c3cccc(Cl)c3)c3cccc(C)c3)cc2c1	inconclusive: 8.91 µM [inhibitor, single point]	–
CC(/C=N/NC(=O)CSc1nnc(SCc2ccccc2)s1)=C\c1ccco1	inconclusive: 12.6 µM [inhibitor, partial curve]	–
COc1ccc2nc(Nc3nc4ccc(NC(C)=O)cc4s3)sc2c1	inconclusive: 3.98 µM [inhibitor, partial curve]	–
Cc1cc2c(n1-c1ccc(C(=O)NCCc3ccccc3)cc1)CCC(C)C2 (configuration not stated)	inconclusive: 28.2 µM [inhibitor, single point]	–
Cc1ccn2c(NCc3ccccc3)c(-c3cccs3)nc2c1	inconclusive: 14.1 µM [inhibitor, partial curve]	–
COc1ccc(CNc2ncncc2-c2ccc3c(c2)OCO3)c(OC)c1	–	inactive: -20.8%
COCCNC(=S)Nc1cc(OC)c(OC)cc1C#N	–	inactive: -11%
CCc1ccc(CN(C)C(=O)CCc2nnc(-c3ccc(-c4ccccc4)cc3)o2)nc1	inconclusive: 15.8 µM [inhibitor, partial curve]	–
CCCc1nc(SCC(=O)N2CCC(Cc3ccccc3)CC2)c2c(=O)n(C)c(=O)n(C)c2n1	inconclusive: 14.1 µM [inhibitor, partial curve]	–
O=c1/c(=C/c2ccccn2)sc2nc3ccccc3n12	inconclusive: 1.26 µM [inhibitor, full curve]	–
O=C(COc1ccc(/C=N/NC(=O)C(=O)N2CCCCC2)cc1)Nc1ccccc1Cl	inconclusive: 14.1 µM [inhibitor, partial curve]	–
Cn1cnnc1SC1c2cccc3cccc(c23)C1NS(=O)(=O)c1ccc(Cl)cc1 (configuration not stated)	–	inactive: -8.33%
COc1ccc(-c2noc(CCC(=O)Nc3cc(OC)ccc3OC)n2)cc1	inconclusive: 25.1 µM [inhibitor, partial curve]	–
CC1=C(CC(=O)c2ccccc2)C(=O)c2ccccc2C1=O	inconclusive: 31.6 µM [inhibitor, partial curve]	–
O=C1CCCC/C1=N\Nc1ccc(C2CCCCC2)cc1	inconclusive: 3.55 µM [inhibitor, partial curve, poor fit]	–
CCOC(=O)c1ccc(NC(=O)CN2CCc3ccccc3C2)cc1	inconclusive: 10 µM [inhibitor, partial curve]	–
CCOc1ccccc1C(=O)Nc1ccc(S(=O)(=O)Nc2ncccn2)cc1	–	inactive: -12.8%
Cc1cccc(Cc2c(C)nc3nc(SCc4ccccc4F)nn3c2C)c1	–	inactive: -10.4%
CC(C)n1c2ccccc2c2nc3ccccc3nc21	inconclusive: 17.8 µM [inhibitor, partial curve]	–
Cc1cc(-c2ccc(N3CCOCC3)cc2)nc2ccccc12	inconclusive: 2.24 µM [inhibitor, partial curve]	–
COc1ccccc1NC(=O)CSc1oc(-c2ccccc2)nc1S(=O)(=O)c1ccccc1	–	inactive: -10.6%
NC(=O)c1ccc(NC(=O)CCc2nc3ccccc3s2)cc1	inconclusive: 15.8 µM [inhibitor, partial curve]	–
COc1cc(-c2oc3ccc(C)cc3c(=O)c2O)cc(OC)c1OC	inconclusive: 2.82 µM [inhibitor, partial curve]	–

SMILES	Potency	activity, negative = inhibition
C=CCN1CCc2cc(O)c(O)cc2[C@H](c2ccccc2)C1	inconclusive: 22.4 µM [inhibitor, partial curve, poor fit]	–
CCOc1ccc(-c2nnc(SCC(=O)N3CCN(c4ccccc4)CC3)o2)cc1	inconclusive: 0.631 µM [inhibitor, full curve]	–
COc1ccc(C2C(C#N)=C(C)NC3=C2C(=O)c2ccccc23)cc1 (configuration not stated)	inconclusive: 28.2 µM [inhibitor, partial curve]	–
Nc1c(C(=O)Nc2ccccc2)c2nc3ccccc3nc2n1-c1ccc(O)cc1	inconclusive: 39.8 µM [inhibitor, single point]	–
Cc1ccc(N2C(=O)CC(Sc3nc(-c4ccccc4)c4cc(Cl)ccc4n3)C2=O)c(C)c1 (configuration not stated)	–	inactive: 4.61%
CN(Cc1ccccc1)C(=O)c1cc(-c2cccc(Cl)c2)on1	–	inactive: -8.96%
C=CCNC(=S)N1CCN(CCN=CC2=C(O)CC(c3ccc(Cl)cc3)CC2=O)CC1 (configuration not stated)	–	inactive: -6.03%
CC1(C)CC(=O)C2=C(C1)OC(N)=C(C#N)C2c1ccc[nH]1 (configuration not stated)	–	inactive: -6.04%
Nc1cc2c(cc1C(=O)c1cccc(Br)c1)OCCO2	inconclusive: 14.1 µM [inhibitor, partial curve]	–
Cc1ccc(C(=O)NC(=S)Nc2cccc(NC(=O)c3ccccc3Cl)c2)cc1[N+](=O)[O-]	–	inactive: -18.5%
CC1=CC(=NOC(=O)c2cccc([N+](=O)[O-])c2)C=C(C)C1=O	inconclusive: 15.8 µM [inhibitor, partial curve]	–
Cc1ccc2c(c1)-c1cc(C)nn1C(c1ccc3c(c1)OCO3)N2 (configuration not stated)	inconclusive: 25.1 µM [inhibitor, partial curve]	–
O=C(/C=C/c1ccc(F)cc1)NC(=S)N1CCCCC1c1cccnc1 (configuration not stated)	inconclusive: 35.5 µM [inhibitor, single point]	–
CCCCCCCCCCCCCCCCn1cc[n+](C)c1	inconclusive: 35.5 µM [inhibitor, partial curve, poor fit] and inconclusive: 22.4 µM [inhibitor, partial curve, poor fit]	–
COc1cc(C(c2sc3nc(C)nn3c2O)N2CCC3(CC2)OCCO3)cc(OC)c1OC (configuration not stated)	–	inactive: 2.53%
CCCC[n+]1c(C)sc2cc(OC)ccc21	inconclusive: 20 µM [inhibitor, single point]	–
Cc1nc2ccc(S(=O)(=O)NCC(=O)N3CCc4ccccc4C3)cc2s1	–	inactive: -4.74%
COc1ccc(N2CCN(C(=O)C(C)n3c(=O)cc(C(F)(F)F)c4c(C)nn(C)c43)CC2)cc1 (configuration not stated)	inconclusive: 20 µM [inhibitor, single point]	–
Cn1cccc1/C=N\NC(=O)c1cncc(Br)c1	inconclusive: 20 µM [inhibitor, single point]	–
CCC(=O)c1ccc(N2CCN(C(=O)c3cccc(F)c3)CC2)c(F)c1	inconclusive: 31.6 µM [inhibitor, partial curve]	–
COc1ccc(C2c3c(ncn(CCCO)c3=N)Oc3ccc4ccccc4c32)cc1 (configuration not stated)	–	inactive: 1.71%
Cc1ccc(CN2C(=O)N/C(=C\c3ccc(-c4ccc(C(=O)O)cc4C)o3)C2=O)cc1	inconclusive: 3.98 µM [inhibitor, partial curve, poor fit]	–
Cn1c(SCC(=O)c2ccc(F)cc2)nnc1-c1ccccn1	inconclusive: 28.2 µM [inhibitor, partial curve]	–

SMILES	Potency	activity, negative = inhibition
CCCCn1c(SCc2nc3ccccc3s2)nc2cc(S(N)(=O)=O)ccc21	inconclusive: 17.8 µM [inhibitor, partial curve, poor fit]	–
O=C(CSC1=Nc2ccccc2N=C(c2ccc(F)cc2)C1)Nc1ccc(Cl)cc1	–	inactive: 12.3%
COC(=O)N[C@H](c1ccccc1)[C@@]1(C)C[C@@H]1[C@@H](C)C(=O)Nc1ccc2ccccc2c1	–	inactive: -4.22%
COC(=O)c1cccc(NC(=O)Nc2ccccc2OC)c1	inconclusive: 39.8 µM [inhibitor, single point]	–
CO/N=C(/C(=O)N[C@H]1C(=O)N2C(C(=O)O)=C(COC(C)=O)CSC12)c1csc(N)n1 (some centres not stated)	inconclusive: 15.8 µM [inhibitor, partial curve]	–
CN(C)c1ccc(N=Cc2nc(-c3ccccc3)oc2O)cc1	active: 2.24 µM	–
O=C(CCc1ccccc1)NC(=S)Nc1ccc2c(c1)C(=O)OC2	inconclusive: 3.55 µM [inhibitor, full curve]	–
Cc1ccc(-n2c(C)cc(/C=N/NC(=O)CN(c3ccc(C)cc3C)S(C)(=O)=O)c2C)cc1	inconclusive: 25.1 µM [inhibitor, partial curve]	–
COc1ccc(-n2c(N)c(C(=O)NCc3ccco3)c3nc4ccccc4nc32)cc1	inconclusive: 14.1 µM [inhibitor, partial curve]	–
O=C(Nc1ccccc1)c1ccc2ccccc2n1	–	inactive: -24.2%
CCN(CC)S(=O)(=O)c1ccc(NC(=O)C2c3ccccc3Oc3ccccc32)cc1	–	inactive: -6.94%
O=C(NC1CCCCC1)c1cc2nc(-c3ccco3)cc(C(F)(F)F)n2n1	inconclusive: 39.8 µM [inhibitor, single point]	–
COC(=O)c1c(NC(NC(=O)C(C)(C)C)C(Cl)(Cl)Cl)sc2c1CCC2 (configuration not stated)	inconclusive: 31.6 µM [inhibitor, partial curve]	–
CO[C@H]1COC(=O)[C@@H](Cc2ccccc2)NC(=O)[C@@H](C)COC(=O)C/C=C\[C@@H]1C	–	inactive: -2.13% [at 11.5 µM]
N#C/C(=C\c1c(Cl)cccc1Cl)c1nc2ccccc2o1	inconclusive: 20 µM [inhibitor, partial curve]	–
COc1cccc2sc(NN)nc12	inconclusive: 15.8 µM [inhibitor, partial curve]	–
O=C(c1cccc(F)c1)N1CCN(c2ccc([N+](=O)[O-])c3cccnc23)CC1	inconclusive: 14.1 µM [inhibitor, partial curve]	–
COC(=O)c1ccccc1NC(=O)COC(=O)c1ccccc1N=Nc1ccc(N(C)C)cc1	active: 4.47 µM	–
O=C(Cc1ccc(-n2cccc2)cc1)N1CCN(c2ccccc2F)CC1	inconclusive: 3.98 µM [inhibitor, full curve]	–
COc1ccc(-c2cc(OC)c3c(C)oc(C)c3c(=O)c2)cc1OC	inconclusive: 17.8 µM [inhibitor, partial curve]	–
CCOC(=O)N1CCN(C(=O)c2ccc3c(=O)n(CC4CCCO4)c(=S)[nH]c3c2)CC1 (configuration not stated)	–	inactive: -5.21%
